This is one part of the list.

Data on one molecule can be found in the supplement of paper PMC8728848.

Holding throughout (assay): glycan array binding signal (z-score within array); higher = stronger binding
What all share (conditions): glycan notation: IUPAC condensed, linker removed

For test [1], the target named is Gal(b1-4)GalNAc(b1-3)[Fuc(a1-2)]Gal(b1-4)GlcNAc. The gist of the method: (§1)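 The binding signal is a Z-score computed within each array and averaged over linkers. Arrays of the same protein sequence at different concentrations or buffers were also averaged together. Data originate from 3228 arrays in the Consortium for Functional Glycomics database, kept only where the protein sequence was available.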

For test [2], the target named is Gal(b1-4)Glc. The procedure, abridged: as §1
Test [3] addresses Gal(b1-4)Glc6S. The gist of the method: as §1
In test [4] the target is Gal(b1-4)GlcNAc. The procedure, abridged: as §1
The target of test [5] is Gal(b1-4)GlcNAc(a1-6)Gal(b1-4)GlcNAc. The gist of the method:
as §1

In test [6] the target is Gal(b1-4)GlcNAc(b1-2)Man. The gist of the method:
as §1

Test [7] concerns the target Gal(b1-4)GlcNAc(b1-2)Man(a1-3)Man(b1-4)GlcNAc(b1-4)GlcNAc. The gist of the method: as §1
Test [8] has as its target Gal(b1-4)GlcNAc(b1-2)Man(a1-3)[Gal(b1-4)GlcNAc(b1-2)Man(a1-6)]Man(b1-4)GlcNAc(b1-4)GlcNAc. The gist of the method:
as §1

For test [9], the target named is Gal(b1-4)GlcNAc(b1-2)Man(a1-3)[Gal(b1-4)GlcNAc(b1-2)Man(a1-6)]Man(b1-4)GlcNAc(b1-4)[Fuc(a1-6)]GlcNAc. The procedure, abridged: as §1
In test [10] the target is Gal(b1-4)GlcNAc(b1-2)Man(a1-3)[Gal(b1-4)GlcNAc(b1-2)Man(a1-6)][Gal(b1-4)GlcNAc(b1-4)]Man(b1-4)GlcNAc(b1-4)[Fuc(a1-6)]GlcNAc. The gist of the method:
as §1

Test [11] concerns the target Gal(b1-4)GlcNAc(b1-2)Man(a1-3)[Gal(b1-4)GlcNAc(b1-2)Man(a1-6)][GlcNAc(b1-4)]Man(b1-4)GlcNAc(b1-4)[Fuc(a1-6)]GlcNAc. The gist of the method: as §1
Test [12] has as its target Gal(b1-4)GlcNAc(b1-2)Man(a1-3)[GlcNAc(b1-2)Man(a1-6)]Man(b1-4)GlcNAc(b1-4)GlcNAc. The gist of the method:
as §1

Test [13] deals with Gal(b1-4)GlcNAc(b1-2)Man(a1-3)[GlcNAc(b1-4)][Gal(b1-4)GlcNAc(b1-2)Man(a1-6)]Man(b1-4)GlcNAc(b1-4)GlcNAc. The procedure, abridged: as §1
The target in test [14] is Gal(b1-4)GlcNAc(b1-2)Man(a1-3)[Man(a1-6)]Man(b1-4)GlcNAc(b1-4)GlcNAc. The gist of the method: as §1
Test [15] addresses Gal(b1-4)GlcNAc(b1-2)Man(a1-6)Man(b1-4)GlcNAc(b1-4)GlcNAc. The procedure, abridged: as §1
Test [16] addresses Gal(b1-4)GlcNAc(b1-2)Man(a1-6)[GlcNAc(b1-2)Man(a1-3)]Man(b1-4)GlcNAc(b1-4)GlcNAc. The gist of the method:
as §1

In test [17] the target is Gal(b1-4)GlcNAc(b1-2)Man(a1-6)[Man(a1-3)]Man(b1-4)GlcNAc(b1-4)GlcNAc. The gist of the method:
as §1

Test [18] addresses Gal(b1-4)GlcNAc(b1-2)[Gal(b1-4)GlcNAc(b1-4)]Man(a1-3)[Gal(b1-4)GlcNAc(b1-2)Man(a1-6)]Man(b1-4)GlcNAc(b1-4)GlcNAc. The gist of the method: as §1
In test [19] the target is Gal(b1-4)GlcNAc(b1-2)[Gal(b1-4)GlcNAc(b1-4)]Man(a1-3)[Gal(b1-4)GlcNAc(b1-2)[Gal(b1-4)GlcNAc(b1-6)]Man(a1-6)]Man(b1-4)GlcNAc(b1-4)GlcNAc. The gist of the method:
as §1

The target of test [20] is Gal(b1-4)GlcNAc(b1-2)[Gal(b1-4)GlcNAc(b1-4)]Man(a1-3)[GlcNAc(b1-4)][Gal(b1-4)GlcNAc(b1-2)Man(a1-6)]Man(b1-4)GlcNAc(b1-4)GlcNAc. The gist of the method: as §1
Test [21] concerns the target Gal(b1-4)GlcNAc(b1-2)[Gal(b1-4)GlcNAc(b1-4)]Man(a1-3)[GlcNAc(b1-4)][Gal(b1-4)GlcNAc(b1-2)[Gal(b1-4)GlcNAc(b1-6)]Man(a1-6)]Man(b1-4)GlcNAc(b1-4)GlcNAc. The procedure, abridged:
as §1

Test [22] concerns the target Gal(b1-4)GlcNAc(b1-2)[Gal(b1-4)GlcNAc(b1-6)]Man(a1-6)[Gal(b1-4)GlcNAc(b1-2)Man(a1-3)]Man(b1-4)GlcNAc(b1-4)GlcNAc. The procedure, abridged:
as §1

B1: Sebin1 (Coprinopsis cinerea), A8PEE3 (protein)
chain: MTSPFYAHIHNVQDDNTWRFTLIFANRATADEWWRAISEAPANTSIAKSITRVTPQYYTHDVNIWNIWNFFADGNIKSISERFRGRLFIVLENDRGGRGITVIPPVPIVDHVSGNWFYIRSKTAPHLFWYYDERRSSIYASKEKRTRFKISIRNPSSQTPKNAIMINTDDVTIHIKENLYVGVDNNLGHIIPTRAYRTFKFGELESGAIAGFDVVENIEERCSSTFDGASLSISGPDSSSPGEPWELV
B1: the “glycan array binding signal (z-score)” value in test [1] was -0.358; in [2] it was -0.68; in test [3] it was -0.312; in test [4], -0.703; in test [5], 0.011; in [6], 0.033. Moreover, the “glycan array binding signal (z-score)” value was -0.09 in [7]; -0.363 in [8]; -0.04 in test [9]; 0.012 in [10]; 0.164 in test [11]; 0.006 in [12]. Further, the “glycan array binding signal (z-score)” value was 0.511 in [13]; 0.357 in [14]; 0.006 in test [15]; -0.684 in test [16]; 0.145 in test [17]; -0.168 in [18]. Further, the “glycan array binding signal (z-score)” value in test [19] is -0.199; in test [20], 0.136; in [21] it was 0.993; in test [22] it was 0.454.
